Out of some 52,000 compounds screened, about 4,300 (8.3%) were called active. Cut-off read from the data, not from the text of the source: active = survival mostly below about 52% (no sharp cut-off); inactive = mostly above about 56%. The list shows a part of the results.

For this assay, the system named is DeltatarO mutant. Description: growth inhibition of S. aureus wild type versus tarO mutant, primary screen, teichoic acid synthesis inhibitors, RN4220, OD600 (AID 463173). The settings on record: OD600, 18 h, active compounds read low, screened at 18.75 µg/mL (by protocol).
As to `CCCC(CCC)C(=O)Nc1nnc2n1CCS2`, the survival was inactive: 82%. In the case of `CN(C)c1ccc(-c2noc(C3CC(=O)N(c4ccc5c(c4)OCCO5)C3)n2)cc1` (configuration not stated) it was inactive: 92%; in that of `Cc1cccc(N(C)C(=O)c2cc(S(=O)(=O)N3CCCCC3)c[nH]2)c1`, inactive: 72%; in that of `O=C(Nc1ccc(Cl)cc1)c1cc2c(Cl)nc3ccccc3c2s1`, inactive: 94%. Next, `Cc1ccc(-c2nc3nc(C)cc(N4CCN(c5cccc(C)c5)C(C)C4)n3n2)cc1` (configuration not stated): inactive: 99%. In the case of `O=C(Cn1c(=O)nc(-c2ccccc2F)c2cc(Cl)ccc21)Nc1ccccc1C(F)(F)F` it was inactive: 96%; in that of `Cc1nnc2sc(-c3ccc(N)cc3)nn12`, inactive: 91%. Take `COc1cc2oc(=O)c(CC(=O)NCCc3ccccc3F)c(C)c2cc1OC`: the survival is inactive: 55%. Regarding `Cc1ccc(NC(=O)C2CCCN(S(=O)(=O)c3ccc4[nH]c(=O)ccc4c3)C2)cc1C` (configuration not stated), the survival was inactive: 78%. Next, `CCCCN(C)CCCNC(=O)CN1C(=O)CSc2ccc(S(=O)(=O)N3CCOCC3)cc21`: inactive: 92%; `CCCCNC(=O)Cn1ncc2c(C)n(Cc3cccc(Cl)c3)c(C)c2c1=O`: inactive: 93%. Next, `O=C(NCc1cccs1)c1nn(-c2ccccc2F)nc1CO`: inactive: 91%. As for `CCC1Oc2ccc(C)cc2N(CC(=O)N(Cc2cccnc2)Cc2cccc(OC)c2)C1=O` (configuration not stated), the survival is inactive: 80%. As to `COc1ccc(-c2nn(CC(=O)NCc3ccccc3)c3c2cnc2ccc(F)cc23)cc1`, the survival was inactive: 117%. Next, `CCOc1ccccc1NC(=O)CN1C(=O)COc2ccc(S(=O)(=O)Nc3ccccc3)cc21`: inactive: 77%; `CCCCC(=O)N1CCN(c2nc3c(C)c(C)ccc3s2)CC1`: active: 46%. In the case of `CCCCNc1cc(N2CCN(C3CCCCC3)CC2)c2noc3c2c1C(=O)c1ccccc1-3` it was active: -5%; in that of `Cc1cc(C)c(NC(=O)CSc2cn(CC(=O)N3CCOCC3)c3ccccc23)c(C)c1`, inactive: 103%. In the case of `O=C(NCC1CCCO1)C1CC(=O)N(c2ccccc2)C1` (configuration not stated) it was inactive: 101%; in that of `Cc1ccc(Cl)cc1NC(=O)c1cc(-c2ccc3c(c2)OCCO3)on1`, active: 34%; in that of `O=C(Cc1ccc(NC(=O)N2CCCCc3ccccc32)cc1)Nc1ccccc1Br`, inactive: 73%. Regarding `Cc1cccc(NC(=O)CN(C)S(=O)(=O)c2cnc[nH]2)c1C`, the survival is inactive: 97%. In the case of `Cc1ccccc1CN1c2ccccc2-c2nc(SCC(=O)Nc3cc(F)ccc3F)ncc2S1(=O)=O`, the survival was inactive: 89%. As for `Cc1cc(C)c(NC(=O)CN2C(=O)CCn3nc(-c4cccn4C)cc32)c(C)c1`, the survival was inactive: 89%. Consider `Cc1ccc(-n2ncc(C(=O)NCCCN3CCN(C)CC3)c2C2CCN(C(=O)OC(C)(C)C)CC2)cc1`, for which the survival was inactive: 96%.

On to `COc1ccc(-c2nnc(SCC(=O)NCCc3ccccc3)nc2-c2ccc(OC)cc2)cc1`, for which the survival is inactive: 101%. In the case of `Cc1cccc(C)c1OCC(=O)Nc1c(C(=O)c2ccccc2)oc2ccccc12` it was inactive: 72%. With `CCc1ccccc1NC(=O)c1ncoc1-c1ccco1`, the survival is inactive: 80%. In the case of `COc1ccc(-c2c(C)nn3c(-c4ccccc4)cc(-c4ccccc4)nc23)cc1` it was inactive: 115%; in that of `Cc1ccc(NC(=O)CSc2nc3nccnc3c(=O)n2CCc2c[nH]c3ccccc23)c(C)c1`, active: 45%. With `Cc1cc(C)c2c(n1)SCC(=O)N2CC(=O)Nc1cccc(C)c1C`, the survival was inactive: 97%. In the case of `COc1cccc(Cn2c(=O)n(CC3CCC(C(=O)N4CCOCC4)CC3)c(=O)c3sccc32)c1` (configuration not stated) it was inactive: 124%; in that of `CCOc1ccc(NC(=O)c2oc3ccccc3c2NC(=O)Cc2cccs2)cc1`, inactive: 82%; in that of `CCN1CCN(C(=O)c2ccc3c(c2)N(Cc2ccc(Cl)cc2)C(=O)c2ccccc2S3=O)CC1` (configuration not stated), inactive: 72%. In the case of `CCc1ccc2c(c1)c(=O)c(C(=O)c1ccccc1)cn2CC(=O)Nc1ccc(C)c(Cl)c1` it was inactive: 68%. In the case of `O=C(NC1CCCCC1)C(c1ccco1)N(Cc1cccs1)C(=O)C(F)(F)F` (configuration not stated) it was inactive: 88%; in that of `CCc1ccc2c(c1)c(=O)c(C(=O)c1ccc(C)cc1)cn2CC(=O)Nc1ccccc1C`, inactive: 65%. For the compound `Cc1ccc(C(=O)Nc2nnc(S(=O)(=O)N3CCCc4ccccc43)s2)cc1`, the survival was active: 39%. For `CCOc1ccc(S(=O)(=O)NCCc2csc3nc(-c4cccc(C)c4)nn23)cc1`, the survival was inactive: 78%. In the case of `Fc1ccc(Nc2c(-c3c[nH]c4ccccc34)nc3ccccn23)cc1` it was inactive: 70%; in that of `COc1ccc(CCNC(=O)c2ccc(CSCc3ccc(C)cc3)o2)cc1OC`, inactive: 73%; in that of `COc1ccc(C(=O)Nc2ccc3nc(N4CCCCC4)cc(C)c3c2)cc1OC`, inactive: 55%. For the compound `COCCCNC(=O)C1CCN(C(=O)c2cc3sccc3n2Cc2ccc(Cl)cc2)CC1`, the survival is inactive: 59%. Next, `Cc1ccc(C)c(N2CCN(C(=O)c3cccn4c(=O)c5ccccc5nc34)CC2)c1`: inactive: 82%; `CCCCOC(=O)c1ccc(NC(=O)c2cc(=O)c3ccccc3o2)cc1`: inactive: 57%; `Cc1cc(SCC(=O)Nc2ccc(C(F)(F)F)cc2)nc(=O)[nH]1`: inactive: 75%. In the case of `CCc1ccc(C(=O)c2cn(CC(=O)Nc3ccc(OC)cc3)c3cc4c(cc3c2=O)OCCO4)cc1` it was inactive: 92%. Next, `C=CCN1C(=O)C(C(=O)O)C(=O)c2ccccc21` (configuration not stated): inactive: 78%; `Cc1ccc(OCCSc2nc3ccccc3n2CC(=O)NC(C)C)cc1`: inactive: 52%.

On to `O=C1CSC2(C(=O)N(Cc3c(F)cccc3Cl)c3ccccc32)N1c1ccc(F)c(F)c1` (configuration not stated), for which the survival is inactive: 78%.

Regarding `O=C(CSc1ncc2c(n1)-c1cc(Cl)ccc1N(Cc1ccccc1)S2(=O)=O)NCc1ccccc1`, the survival is inactive: 89%. For `CCn1nnc(NC(=O)C(C)(c2ccccc2)c2ccccc2)n1`, the survival was inactive: 70%. In the case of `Cc1ccc(-c2nnn3c2nc(N2CCC(C)CC2)c2ccccc23)cc1` it was active: -6%. Next, `Cc1cnc2c(c1)N1CCC2CC1`: inactive: 100%.

`COc1cc(NC(=O)c2cc3cc4ccc(OC)c(Cl)c4nc3s2)cc(OC)c1`: the survival is inactive: 98%. Next, `Cc1ccc(-c2cc3ncc4c(n3n2)-c2ccccc2OC4)cc1`: inactive: 68%. Next, `CCC(Sc1ccc2nnc(CCNS(=O)(=O)c3ccc(OC)cc3)n2n1)C(=O)OC` (configuration not stated): inactive: 98%.
